{"source": "the supplement of paper PMC8728848", "binders": {"B1": {"name": "Gal 2 (Homo sapiens), P05162 (protein)", "chain": "MTGELEVKNMDMKPGSTLKITGSIADGTDGFVINLGQGTDKLNLHFNPRFSESTIVCNSLDGSNWGQEQREDHLCFSPGSEVKFTVTFESDKFKVKLPDGHELTFPNRLGHSHLSYLSVRGGFNMSSFKLKE"}}, "assay_in_all_cases": "glycan array binding signal (z-score within array); higher = stronger binding", "conditions_in_all_cases": "glycan notation: IUPAC condensed, linker removed", "key": {"[1]": {"target": "Fuc(a1-2)[GalNAc(a1-3)]Gal(b1-4)GlcNAc(b1-3)[Fuc(a1-2)[GalNAc(a1-3)]Gal(b1-4)GlcNAc(b1-6)]GalNAc", "procedure,_shortened": "(§1)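 Glycan array binding is given as a within-array Z-score, which can be read as non-binding when negative. The arrays, 3228 of them, came from the Consortium for Functional Glycomics database and were retained only where the protein sequence was available. Z-scores were averaged across arrays of the same protein sequence at different concentrations or buffers and across linkers.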"}, "[2]": {"target": "Fuc(a1-2)[GalNAc(a1-3)]Gal(b1-4)GlcNAc(b1-6)GalNAc", "procedure,_shortened": "as §1"}, "[3]": {"target": "Fuc(a1-2)[GalNAc(a1-3)]Gal(b1-4)[Fuc(a1-3)]GlcNAc", "procedure,_shortened": "as §1"}, "[4]": {"target": "Fuc(a1-2)[GalNAc(a1-3)]Gal(b1-4)[Fuc(a1-3)]GlcNAc(b1-3)GalNAc", "procedure,_shortened": "as §1"}, "[5]": {"target": "Fuc(a1-2)[GalNAc(a1-4)]Gal(b1-4)GlcNAc", "procedure,_shortened": "as §1"}, "[6]": {"target": "Fuc(a1-2)[GalNAc(b1-3)]Gal", "procedure,_shortened": "as §1"}, "Fuc(a1-3)GlcNAc": {"target": "Fuc(a1-3)GlcNAc", "procedure,_shortened": "as §1"}, "[7]": {"target": "Fuc(a1-3)[Gal(b1-4)]Glc6S", "procedure,_shortened": "as §1"}, "[8]": {"target": "Fuc(a1-3)[Gal(b1-4)]GlcNAc", "procedure,_shortened": "as §1"}, "[9]": {"target": "Fuc(a1-3)[Gal(b1-4)]GlcNAc(b1-2)Man", "procedure,_shortened": "as §1"}, "[10]": {"target": "Fuc(a1-3)[Gal(b1-4)]GlcNAc(b1-2)Man(a1-3)[Fuc(a1-3)[Gal(b1-4)]GlcNAc(b1-2)Man(a1-6)]Man(b1-4)GlcNAc(b1-4)GlcNAc", "procedure,_shortened": "as §1"}, "[11]": {"target": "Fuc(a1-3)[Gal(b1-4)]GlcNAc(b1-2)Man(a1-3)[Fuc(a1-3)[Gal(b1-4)]GlcNAc(b1-2)Man(a1-6)]Man(b1-4)GlcNAc(b1-4)[Fuc(a1-6)]GlcNAc", "procedure,_shortened": "as §1"}, "[12]": {"target": "Fuc(a1-3)[Gal(b1-4)]GlcNAc(b1-2)Man(a1-6)[Gal(b1-4)GlcNAc(b1-2)Man(a1-3)]Man(b1-4)GlcNAc(b1-4)GlcNAc", "procedure,_shortened": "as §1"}, "[13]": {"target": "Fuc(a1-3)[Gal(b1-4)]GlcNAc(b1-3)Gal(b1-3)[Fuc(a1-4)]GlcNAc", "procedure,_shortened": "as §1"}, "[14]": {"target": "Fuc(a1-3)[Gal(b1-4)]GlcNAc(b1-3)GalNAc", "procedure,_shortened": "as §1"}, "[15]": {"target": "Fuc(a1-3)[Gal(b1-4)]GlcNAc(b1-4)Gal(b1-4)[Fuc(a1-3)]GlcNAc", "procedure,_shortened": "as §1"}, "[16]": {"target": "Fuc(a1-3)[Gal(b1-4)]GlcNAc(b1-4)Gal(b1-4)[Fuc(a1-3)]GlcNAc(b1-4)Gal(b1-4)[Fuc(a1-3)]GlcNAc", "procedure,_shortened": "as §1"}, "[17]": {"target": "Fuc(a1-3)[Gal(b1-4)]GlcNAc(b1-6)GalNAc", "procedure,_shortened": "as §1"}, "[18]": {"target": "Fuc(a1-3)[Gal(b1-4)]GlcNAc(b1-6)[Gal(b1-3)GlcNAc(b1-3)]Gal(b1-4)Glc", "procedure,_shortened": "as §1"}, "[19]": {"target": "Fuc(a1-3)[Gal(b1-4)]GlcNAc6S", "procedure,_shortened": "as §1"}, "[20]": {"target": "Fuc(a1-3)[Gal3S(b1-4)]Glc", "procedure,_shortened": "as §1"}, "[21]": {"target": "Fuc(a1-3)[Gal3S(b1-4)]Glc6S", "procedure,_shortened": "as §1"}, "[22]": {"target": "Fuc(a1-3)[Gal3S(b1-4)]GlcNAc", "procedure,_shortened": "as §1"}, "[23]": {"target": "Fuc(a1-3)[Gal3S(b1-4)]GlcNAc6S", "procedure,_shortened": "as §1"}, "[24]": {"target": "Fuc(a1-3)[GalNAc(b1-4)]Gal(b1-4)GlcNAc", "procedure,_shortened": "as §1"}, "[25]": {"target": "Fuc(a1-3)[GalNAc(b1-4)]GlcNAc", "procedure,_shortened": "as §1"}, "[26]": {"target": "Fuc(a1-3)[GalNAc(b1-4)]GlcNAc6S", "procedure,_shortened": "as §1"}, "Fuc(a1-4)GlcNAc": {"target": "Fuc(a1-4)GlcNAc", "procedure,_shortened": "as §1"}, "Fuc(b1-3)GlcNAc": {"target": "Fuc(b1-3)GlcNAc", "procedure,_shortened": "as §1"}, "Gal(a1-2)Gal": {"target": "Gal(a1-2)Gal", "procedure,_shortened": "as §1"}, "Gal(a1-3)Gal": {"target": "Gal(a1-3)Gal", "procedure,_shortened": "as §1"}, "Gal(a1-3)Gal(b1-3)Glc": {"target": "Gal(a1-3)Gal(b1-3)Glc", "procedure,_shortened": "as §1"}, "Gal(a1-3)Gal(b1-3)GlcNAc": {"target": "Gal(a1-3)Gal(b1-3)GlcNAc", "procedure,_shortened": "as §1"}, "[27]": {"target": "Gal(a1-3)Gal(b1-3)GlcNAc(b1-2)Man", "procedure,_shortened": "as §1"}, "[28]": {"target": "Gal(a1-3)Gal(b1-3)GlcNAc(b1-2)Man(a1-3)[Gal(a1-3)Gal(b1-3)GlcNAc(b1-2)Man(a1-6)]Man(b1-4)GlcNAc(b1-4)GlcNAc", "procedure,_shortened": "as §1"}, "[29]": {"target": "Gal(a1-3)Gal(b1-3)GlcNAc(b1-3)GalNAc", "procedure,_shortened": "as §1"}, "[30]": {"target": "Gal(a1-3)Gal(b1-3)GlcNAc(b1-6)GalNAc", "procedure,_shortened": "as §1"}, "[31]": {"target": "Gal(a1-3)Gal(b1-3)[Fuc(a1-4)]GlcNAc(b1-2)Man(a1-3)[Gal(a1-3)Gal(b1-3)[Fuc(a1-4)]GlcNAc(b1-2)Man(a1-6)]Man(b1-4)GlcNAc(b1-4)GlcNAc", "procedure,_shortened": "as §1"}, "Gal(a1-3)Gal(b1-4)Glc": {"target": "Gal(a1-3)Gal(b1-4)Glc", "procedure,_shortened": "as §1"}, "Gal(a1-3)Gal(b1-4)GlcNAc": {"target": "Gal(a1-3)Gal(b1-4)GlcNAc", "procedure,_shortened": "as §1"}, "[32]": {"target": "Gal(a1-3)Gal(b1-4)GlcNAc(b1-2)Man", "procedure,_shortened": "as §1"}, "[33]": {"target": "Gal(a1-3)Gal(b1-4)GlcNAc(b1-2)Man(a1-3)[Gal(a1-3)Gal(b1-4)GlcNAc(b1-2)Man(a1-6)]Man(b1-4)GlcNAc(b1-4)GlcNAc", "procedure,_shortened": "as §1"}, "[34]": {"target": "Gal(a1-3)Gal(b1-4)GlcNAc(b1-3)GalNAc", "procedure,_shortened": "as §1"}, "[35]": {"target": "Gal(a1-3)Gal(b1-4)GlcNAc(b1-6)GalNAc", "procedure,_shortened": "as §1"}, "[36]": {"target": "Gal(a1-3)Gal(b1-4)[Fuc(a1-3)]GalNAc", "procedure,_shortened": "as §1"}}, "note": "This is one part of the list."}
{"binder": "B1", "values": [{"measurement": "glycan array binding signal (z-score)", "setting": "[1]", "value": 1.35}, {"measurement": "glycan array binding signal (z-score)", "setting": "[2]", "value": -0.043}, {"measurement": "glycan array binding signal (z-score)", "setting": "[3]", "value": -0.192}, {"measurement": "glycan array binding signal (z-score)", "setting": "[4]", "value": -0.08}, {"measurement": "glycan array binding signal (z-score)", "setting": "[5]", "value": -0.27}, {"measurement": "glycan array binding signal (z-score)", "setting": "[6]", "value": -0.239}, {"measurement": "glycan array binding signal (z-score)", "setting": "Fuc(a1-3)GlcNAc", "value": -0.254}, {"measurement": "glycan array binding signal (z-score)", "setting": "[7]", "value": -0.184}, {"measurement": "glycan array binding signal (z-score)", "setting": "[8]", "value": -0.043}, {"measurement": "glycan array binding signal (z-score)", "setting": "[9]", "value": -0.305}, {"measurement": "glycan array binding signal (z-score)", "setting": "[10]", "value": -0.229}, {"measurement": "glycan array binding signal (z-score)", "setting": "[11]", "value": -0.182}, {"measurement": "glycan array binding signal (z-score)", "setting": "[12]", "value": -0.223}, {"measurement": "glycan array binding signal (z-score)", "setting": "[13]", "value": -0.205}, {"measurement": "glycan array binding signal (z-score)", "setting": "[14]", "value": -0.294}, {"measurement": "glycan array binding signal (z-score)", "setting": "[15]", "value": -0.253}, {"measurement": "glycan array binding signal (z-score)", "setting": "[16]", "value": -0.279}, {"measurement": "glycan array binding signal (z-score)", "setting": "[17]", "value": -0.025}, {"measurement": "glycan array binding signal (z-score)", "setting": "[18]", "value": -0.256}, {"measurement": "glycan array binding signal (z-score)", "setting": "[19]", "value": -0.2}, {"measurement": "glycan array binding signal (z-score)", "setting": "[20]", "value": -0.187}, {"measurement": "glycan array binding signal (z-score)", "setting": "[21]", "value": -0.198}, {"measurement": "glycan array binding signal (z-score)", "setting": "[22]", "value": -0.185}, {"measurement": "glycan array binding signal (z-score)", "setting": "[23]", "value": -0.204}, {"measurement": "glycan array binding signal (z-score)", "setting": "[24]", "value": -0.166}, {"measurement": "glycan array binding signal (z-score)", "setting": "[25]", "value": -0.226}, {"measurement": "glycan array binding signal (z-score)", "setting": "[26]", "value": -0.198}, {"measurement": "glycan array binding signal (z-score)", "setting": "Fuc(a1-4)GlcNAc", "value": -0.261}, {"measurement": "glycan array binding signal (z-score)", "setting": "Fuc(b1-3)GlcNAc", "value": -0.269}, {"measurement": "glycan array binding signal (z-score)", "setting": "Gal(a1-2)Gal", "value": -0.275}, {"measurement": "glycan array binding signal (z-score)", "setting": "Gal(a1-3)Gal", "value": -0.286}, {"measurement": "glycan array binding signal (z-score)", "setting": "Gal(a1-3)Gal(b1-3)Glc", "value": 0.618}, {"measurement": "glycan array binding signal (z-score)", "setting": "Gal(a1-3)Gal(b1-3)GlcNAc", "value": 1.12}, {"measurement": "glycan array binding signal (z-score)", "setting": "[27]", "value": -0.221}, {"measurement": "glycan array binding signal (z-score)", "setting": "[28]", "value": -0.222}, {"measurement": "glycan array binding signal (z-score)", "setting": "[29]", "value": -0.228}, {"measurement": "glycan array binding signal (z-score)", "setting": "[30]", "value": -0.05}, {"measurement": "glycan array binding signal (z-score)", "setting": "[31]", "value": -0.037}, {"measurement": "glycan array binding signal (z-score)", "setting": "Gal(a1-3)Gal(b1-4)Glc", "value": -0.188}, {"measurement": "glycan array binding signal (z-score)", "setting": "Gal(a1-3)Gal(b1-4)GlcNAc", "value": 0.355}, {"measurement": "glycan array binding signal (z-score)", "setting": "[32]", "value": -0.1}, {"measurement": "glycan array binding signal (z-score)", "setting": "[33]", "value": 0.518}, {"measurement": "glycan array binding signal (z-score)", "setting": "[34]", "value": -0.086}, {"measurement": "glycan array binding signal (z-score)", "setting": "[35]", "value": -0.164}, {"measurement": "glycan array binding signal (z-score)", "setting": "[36]", "value": -0.524}]}
